Measured values published in the supplement of paper PMC3334620.
In all, about 33,000 sequences were measured (“E-score (-0.5 to 0.5)”: median about -0.056, highest 2% from about 0.38 on). The list shows a part of the results.

Target: Stb4 (UniProt P50104)
Assay: PBM E-score (8-mer binding enrichment) (E-score (-0.5 to 0.5)); higher = stronger / more preferred TF binding; most listed sequences are background and not binding sites
Details: protein concentration: 200 nM; construct: GST-DNA-binding domain
In short: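 Detection of bound protein used fluorescent anti-GST, with scans normalised by masliner. The proteins were GST-tagged yeast transcription factors applied at about 100-200 nM to universal all-10-mer Agilent arrays made double-stranded by primer extension. Each ungapped eight-base word, pooled with its reverse complement, was scored with an E-score from the Universal PBM Analysis Suite.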

| Sequence | PBM E-score |
| --- | --- |
| CCTGGCAA | -0.145 |
| GTCACTAA | -0.219 |
| ATTACCGC | 0.208 |
| TCAAGGGA | 0.0219 |
| AGGCGCGA | -0.104 |
| GCTTCCCC | -0.0394 |
| ATCAACCC | 0.185 |
| AATTCACA | -0.132 |
| CAACGTTA | 0.00874 |
| GACGGGGC | -0.138 |
| AATAAGCG | -0.155 |
| CCCGTAGC | 0.00168 |
| CTACACAC | -0.077 |
| CATGATTC | -0.131 |
| ACACAACC | -0.0108 |
| GTCAGAAA | -0.203 |
| AATAAAAC | -0.0373 |
| GGCAAGTA | 0.0793 |
| ATAATGGA | -0.0765 |
| CGTGCAGC | -0.0683 |
| ACCCATTC | -0.0756 |
| GGGGGCCA | 0.0783 |
| ATTACTAA | -0.126 |
| ACATGCTG | -0.285 |
| ATACTATG | -0.00557 |

| Sequence | PBM E-score |
| --- | --- |
| CGAAGTGC | 0.0604 |
| GTATTCCA | 0.00919 |
| TTACTAAA | -0.12 |
| CCTAGGCG | -0.217 |
| GTTTGAAA | -0.0579 |
| ACAATGTG | -0.195 |
| GCCACATA | -0.134 |
| CGCTTACC | 0.106 |
| ACATGCGT | -0.242 |
| CCTTAACG | 0.219 |
| CACCACCA | -0.0793 |
| AAATGCGG | 0.307 |
| GCGCATTA | 0.00939 |
| AGATCTTA | -0.23 |
| GTTACTCA | 0.0396 |
| CTTGCGCA | -0.168 |
| CGGGATGC | 0.235 |
| CGTGATGC | 0.0274 |
| CCGACGGC | 0.339 |
| CGACGGAC | 0.148 |
| CCATTGGA | -0.213 |
| GATGTGTA | 0.0612 |
| ATCAAGCG | -0.0847 |
| CATTTCGC | 0.00468 |
| CTTTGCGC | -0.114 |

| Sequence | PBM E-score |
| --- | --- |
| AAAATGAA | -0.103 |
| ATCATCTG | 0.135 |
| ACCATTTG | -0.0118 |
| AAGATTTC | 0.0611 |
| TCAGACCA | -0.213 |
| AGCTTGAA | -0.171 |
| GAACTAAA | 0.158 |
| CGTGTCAA | -0.235 |
| CAGTCCCG | 0.257 |
| GCGATTAA | 0.0514 |
| AGTAGCTG | -0.221 |
| AACTATAT | -0.0631 |
| GAGGCGTA | -0.0236 |
| CGTGCTAG | -0.16 |
| ATTTTACC | 0.238 |
| CGCTTCCA | -0.0326 |
| GTTTGGAA | -0.152 |
| ATAGGCGG | 0.186 |
| GGACAGAC | -0.0236 |
| CGCGACAC | -0.00733 |
| AGTGCGTA | -0.145 |
| ACCACGTA | -0.33 |
| GAAGGATC | 0.0415 |
| CGAGGAAG | 0.13 |
| CAATACCG | 0.134 |

| Sequence | PBM E-score |
| --- | --- |
| CGTGAGCA | -0.0397 |
| GACAGTGC | -0.0115 |
| ACTTCTCA | -0.289 |
| CCTTATGA | -0.155 |
| CCTTTCAG | -0.197 |
| GGAGCGCA | -0.065 |
| CAAGTTAC | 0.0131 |
| ATGTGGAA | -0.079 |
| GGAATAAC | 0.298 |
| CTGGTTAA | 0.0161 |
| CCTCTTAG | -0.0404 |
| CAACTGAG | -0.0761 |
| CGGTCAAC | 0.172 |
| GACAACCA | -0.0624 |
| ACTTCAGA | 0.00297 |
| TAGCGCCA | -0.319 |
| AGACGCCG | 0.14 |
| GAAGCCGA | 0.401 |
| TAGGGATA | -0.1 |
| GGCATCGA | -0.166 |
| CGGCCCAC | 0.126 |
| CCCTCCGC | 0.0931 |
| AATACACA | -0.144 |
| GAGAAACC | 0.107 |
| ACCTATGG | -0.0696 |

| Sequence | PBM E-score |
| --- | --- |
| CTATCCCA | -0.135 |
| AGACGAGG | -0.152 |
| CCTCCTTA | -0.227 |
| AGTAATTA | -0.25 |
| ATAACGCC | 0.0163 |
| ACTGTTCG | 0.0494 |
| AACTCTTC | -0.165 |
| TAAACGTA | -0.249 |
| ATCGCGTA | -0.195 |
| ACGTGTGA | -0.244 |
| AACCGGTG | 0.256 |
| CTCGTACA | -0.14 |
| TAGTTTGA | -0.121 |
| TATTCACA | 0.129 |
| GCTGGGCC | -0.159 |
| CGGGAATC | 0.367 |
| CACTCGCG | -0.0299 |
| GCTTGACA | -0.158 |
| AACTGTGT | -0.0951 |
| AGCAAGCA | -0.241 |
| GACGCTGA | -0.187 |
| GCCCCCGC | -0.0333 |
| ACGGCCAT | -0.0987 |
| CGAGCAAC | 0.183 |
| TCCATGAA | 0.0216 |

| Sequence | PBM E-score |
| --- | --- |
| GGTTACCA | 0.112 |
| GTCGATTA | -0.00305 |
| TCACGTAA | -0.184 |
| CGGCCAAA | 0.25 |
| CACCGCTA | -0.163 |
| ATTGTTAA | -0.12 |
| CTGTTAAG | -0.284 |
| AAAGGTCT | -0.0403 |
| AGAGTGTA | -0.094 |
| ATAGAACA | -0.154 |
| CCTGTTAA | -0.209 |
| CGTCACTA | -0.00656 |
| AGCGGCAG | 0.131 |
| CCAATCAG | -0.287 |
| ATGTACTA | -0.223 |
| ACCTTTAG | -0.0713 |
| CCGTGTTA | 0.167 |
| ACTAAGGC | -0.0898 |
| GTAGCGGA | 0.216 |
| ATTGGCAA | -0.164 |
| CGTCGGGA | 0.383 |
| CTGGTCGC | -0.0775 |
| ATTTCCCG | 0.371 |
| ACGCGGAT | 0.315 |
| ATCACGCA | -0.157 |

| Sequence | PBM E-score |
| --- | --- |
| AAAGCGCT | -0.0584 |
| TAGAGGAA | -0.0516 |
| AATCAAGC | -0.103 |
| AGACACCC | -0.00588 |
| CAACTTAC | -0.0406 |
| CTGGCCCA | -0.24 |
| AGGTGTCG | 0.0831 |
| AGCCGCTA | 0.0454 |
| CATCAGGA | 0.114 |
| TCAGAGCA | -0.316 |
| AAATTCCA | -0.0536 |
| GCACGGCA | 0.109 |
| GGGAGGTA | 0.0266 |
| ATATGATA | 0.149 |
| ACGCTGTG | -0.178 |
| ACTCAAAT | -0.126 |
| ACAACAAC | -0.214 |
| GACTTAAC | -0.252 |
| AATTAATA | 0.171 |
| CGCTCCAG | -0.00866 |
| GAGTGCGC | -0.082 |
| ATCACGTG | -0.0391 |
| ATAATATA | -0.0573 |
| ACTTATTC | 0.093 |
| ACCCGGTC | 0.236 |

| Sequence | PBM E-score |
| --- | --- |
| AAGCTTCG | 0.101 |
| CGCATGAC | -0.0198 |
| TCGTGCAA | -0.179 |
| CCGGCTTC | 0.237 |
| AAGTTGAT | -0.0732 |
| GAGGGTGC | -0.16 |
| CATAATCA | -0.184 |
| CCTCTCTC | -0.202 |
| AGTGTCTG | -0.158 |
| ACTGATGC | -0.101 |
| TAACATTA | 0.0275 |
| AGCAAAGC | -0.101 |
| CCTCACGA | -0.218 |
| TGCGAAAA | -0.0153 |
| GTCCGGGA | 0.266 |
| ATAATTCC | 0.123 |
| ATCTCACA | -0.197 |
| CCAATATC | 0.137 |
| ACCTACCC | 0.181 |
| CGTGCGAC | -0.126 |
| TAGGACCA | -0.132 |
| CATCCAAA | -0.2 |
| AGTGGCAG | -0.149 |
| ATTATATG | 0.00361 |
| GGTTCTCA | -0.0396 |

| Sequence | PBM E-score |
| --- | --- |
| CACTTCGG | 0.358 |
| CTCAATGA | -0.224 |
| CCCCGTAG | 0.0142 |
| CAAGCGCC | 0.0861 |
| CACAGGAC | -0.048 |
| AGGGTTGC | -0.0529 |
| AGTAGTTC | 0.0901 |
| GTCGGGCA | 0.13 |
| ACCTAGAG | -0.314 |
| ACTTTAGG | -0.205 |
| AAATCGAT | -0.337 |
| CTTTGCAA | -0.0701 |
| CCTCTCAG | -0.314 |
| GACTCCGC | 0.116 |
| GGCGCTAA | -0.0634 |
| AGACGTTG | -0.146 |
| ACCGGAAC | 0.419 |
| ACCCGTTG | 0.118 |
| AAGAGAGG | -0.199 |
